The list shows a part of the results.
What was measured:
Assay in all cases: glycan array binding signal (z-score within array); higher = stronger binding
Details in all cases: glycan notation: IUPAC condensed, linker removed
Neu5Ac(a2-3)GalNAc = target: Neu5Ac(a2-3)GalNAc
Summary of the method: (§1)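 Glycan array data were curated from 3228 arrays in the Consortium for Functional Glycomics database and kept only where the protein sequence was available. Glycan names were converted to IUPAC-condensed notation, and columns mapping to the same glycan were averaged. The binding signal is a within-array Z-score, averaged across arrays of the same protein sequence at different concentrations or buffers and across linkers. Negative Z-scores can be read as non-binding.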

[1] = target: Neu5Ac(a2-3)GalNAc(b1-4)GlcNAc
Summary of the method: as §1

[2] = target: Neu5Ac(a2-3)[GalNAc(b1-4)]Gal(b1-4)Glc
Summary of the method: as §1

[3] = target: Neu5Ac(a2-3)[GalNAc(b1-4)]Gal(b1-4)GlcNAc
Summary of the method: as §1

[4] = target: Neu5Ac(a2-3)[GalNAc(b1-4)]Gal(b1-4)GlcNAc(b1-3)GalNAc
Summary of the method: as §1

[5] = target: Neu5Ac(a2-3)[Neu5Ac(a2-6)]GalNAc
Summary of the method: as §1

Neu5Ac(a2-6)Gal = target: Neu5Ac(a2-6)Gal
Summary of the method: as §1

[6] = target: Neu5Ac(a2-6)Gal(b1-3)GlcNAc(b1-3)[Gal(b1-4)GlcNAc(b1-6)]Gal(b1-4)Glc
Summary of the method: as §1

Neu5Ac(a2-6)Gal(b1-4)Glc = target: Neu5Ac(a2-6)Gal(b1-4)Glc
Summary of the method: as §1

[7] = target: Neu5Ac(a2-6)Gal(b1-4)GlcNAc
Summary of the method: as §1

[8] = target: Neu5Ac(a2-6)Gal(b1-4)GlcNAc(b1-2)Man
Summary of the method: as §1

[9] = target: Neu5Ac(a2-6)Gal(b1-4)GlcNAc(b1-2)Man(a1-3)Man(b1-4)GlcNAc(b1-4)GlcNAc
Summary of the method: as §1

[10] = target: Neu5Ac(a2-6)Gal(b1-4)GlcNAc(b1-2)Man(a1-3)[Gal(b1-4)GlcNAc(b1-2)Man(a1-6)]Man(b1-4)GlcNAc(b1-4)GlcNAc
Summary of the method: as §1

[11] = target: Neu5Ac(a2-6)Gal(b1-4)GlcNAc(b1-2)Man(a1-3)[GlcNAc(b1-2)Man(a1-6)]Man(b1-4)GlcNAc(b1-4)GlcNAc
Summary of the method: as §1

[12] = target: Neu5Ac(a2-6)Gal(b1-4)GlcNAc(b1-2)Man(a1-3)[GlcNAc(b1-4)][Neu5Ac(a2-6)Gal(b1-4)GlcNAc(b1-2)Man(a1-6)]Man(b1-4)GlcNAc(b1-4)GlcNAc
Summary of the method: as §1

[13] = target: Neu5Ac(a2-6)Gal(b1-4)GlcNAc(b1-2)Man(a1-3)[Man(a1-6)]Man(b1-4)GlcNAc(b1-4)GlcNAc
Summary of the method: as §1

[14] = target: Neu5Ac(a2-6)Gal(b1-4)GlcNAc(b1-2)Man(a1-3)[Neu5Ac(a2-3)Gal(b1-4)GlcNAc(b1-2)Man(a1-6)]Man(b1-4)GlcNAc(b1-4)GlcNAc
Summary of the method: as §1

[15] = target: Neu5Ac(a2-6)Gal(b1-4)GlcNAc(b1-2)Man(a1-3)[Neu5Ac(a2-6)Gal(b1-4)GlcNAc(b1-2)Man(a1-6)]Man(b1-4)GlcNAc(b1-4)GlcNAc
Summary of the method: as §1

[16] = target: Neu5Ac(a2-6)Gal(b1-4)GlcNAc(b1-2)Man(a1-3)[Neu5Ac(a2-6)Gal(b1-4)GlcNAc(b1-2)Man(a1-6)]Man(b1-4)GlcNAc(b1-4)[Fuc(a1-6)]GlcNAc
Summary of the method: as §1

[17] = target: Neu5Ac(a2-6)Gal(b1-4)GlcNAc(b1-2)Man(a1-6)Man(b1-4)GlcNAc(b1-4)GlcNAc
Summary of the method: as §1

[18] = target: Neu5Ac(a2-6)Gal(b1-4)GlcNAc(b1-2)Man(a1-6)[Gal(b1-4)GlcNAc(b1-2)Man(a1-3)]Man(b1-4)GlcNAc(b1-4)GlcNAc
Summary of the method: as §1

[19] = target: Neu5Ac(a2-6)Gal(b1-4)GlcNAc(b1-2)Man(a1-6)[GlcNAc(b1-2)Man(a1-3)]Man(b1-4)GlcNAc(b1-4)GlcNAc
Summary of the method: as §1

[20] = target: Neu5Ac(a2-6)Gal(b1-4)GlcNAc(b1-2)Man(a1-6)[Man(a1-3)]Man(b1-4)GlcNAc(b1-4)GlcNAc
Summary of the method: as §1

[21] = target: Neu5Ac(a2-6)Gal(b1-4)GlcNAc(b1-2)[Neu5Ac(a2-6)Gal(b1-4)GlcNAc(b1-4)]Man(a1-3)[GlcNAc(b1-4)][Neu5Ac(a2-6)Gal(b1-4)GlcNAc(b1-2)[Neu5Ac(a2-6)Gal(b1-4)GlcNAc(b1-6)]Man(a1-6)]Man(b1-4)GlcNAc(b1-4)GlcNAc
Summary of the method: as §1

[22] = target: Neu5Ac(a2-6)Gal(b1-4)GlcNAc(b1-2)[Neu5Ac(a2-6)Gal(b1-4)GlcNAc(b1-4)]Man(a1-3)[GlcNAc(b1-4)][Neu5Ac(a2-6)Gal(b1-4)GlcNAc(b1-4)Man(a1-6)]Man(b1-4)GlcNAc(b1-4)GlcNAc
Summary of the method: as §1

[23] = target: Neu5Ac(a2-6)Gal(b1-4)GlcNAc(b1-2)[Neu5Ac(a2-6)Gal(b1-4)GlcNAc(b1-6)]Man(a1-6)[Neu5Ac(a2-6)Gal(b1-4)GlcNAc(b1-2)Man(a1-3)][GlcNAc(b1-4)]Man(b1-4)GlcNAc(b1-4)GlcNAc
Summary of the method: as §1

[24] = target: Neu5Ac(a2-6)Gal(b1-4)GlcNAc(b1-3)Gal(b1-3)GlcNAc
Summary of the method: as §1

[25] = target: Neu5Ac(a2-6)Gal(b1-4)GlcNAc(b1-3)Gal(b1-4)GlcNAc
Summary of the method: as §1

[26] = target: Neu5Ac(a2-6)Gal(b1-4)GlcNAc(b1-3)Gal(b1-4)GlcNAc(b1-2)Man(a1-3)[Neu5Ac(a2-6)Gal(b1-4)GlcNAc(b1-3)Gal(b1-4)GlcNAc(b1-2)Man(a1-6)]GalNAc
Summary of the method: as §1

[27] = target: Neu5Ac(a2-6)Gal(b1-4)GlcNAc(b1-3)Gal(b1-4)GlcNAc(b1-3)Gal(b1-4)GlcNAc
Summary of the method: as §1

[28] = target: Neu5Ac(a2-6)Gal(b1-4)GlcNAc(b1-3)Gal(b1-4)GlcNAc(b1-3)Gal(b1-4)GlcNAc(b1-2)Man(a1-3)[Neu5Ac(a2-6)Gal(b1-4)GlcNAc(b1-3)Gal(b1-4)GlcNAc(b1-3)Gal(b1-4)GlcNAc(b1-2)Man(a1-6)]GalNAc
Summary of the method: as §1

[29] = target: Neu5Ac(a2-6)Gal(b1-4)GlcNAc(b1-3)Gal(b1-4)GlcNAc(b1-3)GalNAc
Summary of the method: as §1

[30] = target: Neu5Ac(a2-6)Gal(b1-4)GlcNAc(b1-3)Gal(b1-4)GlcNAc(b1-3)[Neu5Ac(a2-6)Gal(b1-4)GlcNAc(b1-3)Gal(b1-4)GlcNAc(b1-6)]GalNAc
Summary of the method: as §1

[31] = target: Neu5Ac(a2-6)Gal(b1-4)GlcNAc(b1-3)Gal(b1-4)GlcNAc(b1-6)[Gal(b1-3)]GalNAc
Summary of the method: as §1

[32] = target: Neu5Ac(a2-6)Gal(b1-4)GlcNAc(b1-3)Gal(b1-4)[Fuc(a1-3)]GlcNAc(b1-3)Gal(b1-4)[Fuc(a1-3)]GlcNAc
Summary of the method: as §1

[33] = target: Neu5Ac(a2-6)Gal(b1-4)GlcNAc(b1-3)GalNAc
Summary of the method: as §1

[34] = target: Neu5Ac(a2-6)Gal(b1-4)GlcNAc(b1-3)[Neu5Ac(a2-6)Gal(b1-4)GlcNAc(b1-6)]GalNAc
Summary of the method: as §1

B1: Epa12 (Candida glabrata) (protein)
chain: MGSSHHHHHHSSGLVPRGSHMLEPDNSLQIFDSFLSNPSKYPLGCSPKITNPKKGLSMELYSYPYRKKGSHPCWDPAYLDPNFPRVGYKKNKLIARVDGVSGDINFNFHPKRQCTPIADYLPPNFNYNEPITTTNFTMLLYGYFKPKVTGLHTFDISADDLLFMNFGAGNAFDCCRRDSTADTFGNYVAWAIWGRRIVRNKLTVRLDKGIYYPLRLFFNNRDYYGQMRLTFKTEHGSERITDFSDYFFSVDDTSEGCPGLITYESECADVKSSTVLETDYITIQAEKE
B1 was tested, and the “glycan array binding signal (z-score)” value (Neu5Ac(a2-3)GalNAc) was -0.3, the “glycan array binding signal (z-score)” value [1] was -0.336 and the “glycan array binding signal (z-score)” value [2] was -0.34. For the same binder, the “glycan array binding signal (z-score)” value [3] was -0.328, the “glycan array binding signal (z-score)” value [4] was -0.257 and the “glycan array binding signal (z-score)” value [5] was -0.292. For the same binder, the “glycan array binding signal (z-score)” value (Neu5Ac(a2-6)Gal) was -0.091, the “glycan array binding signal (z-score)” value [6] was -0.186 and the “glycan array binding signal (z-score)” value (Neu5Ac(a2-6)Gal(b1-4)Glc) was -0.126. The “glycan array binding signal (z-score)” value [7] was -0.087, the “glycan array binding signal (z-score)” value [8] was -0.299 and the “glycan array binding signal (z-score)” value [9] was -0.309. The “glycan array binding signal (z-score)” value [10] was -0.248, the “glycan array binding signal (z-score)” value [11] was -0.236 and the “glycan array binding signal (z-score)” value [12] was -0.372. For the same binder, the “glycan array binding signal (z-score)” value [13] was -0.249, the “glycan array binding signal (z-score)” value [14] was -0.324 and the “glycan array binding signal (z-score)” value [15] was -0.273. The “glycan array binding signal (z-score)” value [16] was -0.267, the “glycan array binding signal (z-score)” value [17] was -0.244 and the “glycan array binding signal (z-score)” value [18] was -0.241. The “glycan array binding signal (z-score)” value [19] was -0.208, the “glycan array binding signal (z-score)” value [20] was -0.363 and the “glycan array binding signal (z-score)” value [21] was -0.162. For the same binder, the “glycan array binding signal (z-score)” value [22] was -0.291, the “glycan array binding signal (z-score)” value [23] was -0.212 and the “glycan array binding signal (z-score)” value [24] was -0.322. The “glycan array binding signal (z-score)” value [25] was -0.281, the “glycan array binding signal (z-score)” value [26] was -0.208 and the “glycan array binding signal (z-score)” value [27] was -0.406. For the same binder, the “glycan array binding signal (z-score)” value [28] was -0.137, the “glycan array binding signal (z-score)” value [29] was -0.381 and the “glycan array binding signal (z-score)” value [30] was -0.298. The “glycan array binding signal (z-score)” value [31] was -0.274, the “glycan array binding signal (z-score)” value [32] was -0.259 and the “glycan array binding signal (z-score)” value [33] was -0.292. For the same binder, the “glycan array binding signal (z-score)” value [34] was -0.106.

From the supplement of paper PMC8728848
